Test results from paper PMC4336329 (PLoS ONE, 2015).
The whole screen tested about 310,000 compounds, of which about 14,000 (4.5%) showed an effect of 50% or more. Effects have a minus sign here. This is one part of the list.

target: human ether-à-go-go-related gene (hERG) potassium channel (human, UniProt Q12809); test: primary screen, population patch clamp on CHO cells stably expressing hERG
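Also: peak tail current of the secondary pulse compared with the same well before compound.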

Sequence of human ether-à-go-go-related gene (hERG) potassium channel (Q12809 whole entry, looked up): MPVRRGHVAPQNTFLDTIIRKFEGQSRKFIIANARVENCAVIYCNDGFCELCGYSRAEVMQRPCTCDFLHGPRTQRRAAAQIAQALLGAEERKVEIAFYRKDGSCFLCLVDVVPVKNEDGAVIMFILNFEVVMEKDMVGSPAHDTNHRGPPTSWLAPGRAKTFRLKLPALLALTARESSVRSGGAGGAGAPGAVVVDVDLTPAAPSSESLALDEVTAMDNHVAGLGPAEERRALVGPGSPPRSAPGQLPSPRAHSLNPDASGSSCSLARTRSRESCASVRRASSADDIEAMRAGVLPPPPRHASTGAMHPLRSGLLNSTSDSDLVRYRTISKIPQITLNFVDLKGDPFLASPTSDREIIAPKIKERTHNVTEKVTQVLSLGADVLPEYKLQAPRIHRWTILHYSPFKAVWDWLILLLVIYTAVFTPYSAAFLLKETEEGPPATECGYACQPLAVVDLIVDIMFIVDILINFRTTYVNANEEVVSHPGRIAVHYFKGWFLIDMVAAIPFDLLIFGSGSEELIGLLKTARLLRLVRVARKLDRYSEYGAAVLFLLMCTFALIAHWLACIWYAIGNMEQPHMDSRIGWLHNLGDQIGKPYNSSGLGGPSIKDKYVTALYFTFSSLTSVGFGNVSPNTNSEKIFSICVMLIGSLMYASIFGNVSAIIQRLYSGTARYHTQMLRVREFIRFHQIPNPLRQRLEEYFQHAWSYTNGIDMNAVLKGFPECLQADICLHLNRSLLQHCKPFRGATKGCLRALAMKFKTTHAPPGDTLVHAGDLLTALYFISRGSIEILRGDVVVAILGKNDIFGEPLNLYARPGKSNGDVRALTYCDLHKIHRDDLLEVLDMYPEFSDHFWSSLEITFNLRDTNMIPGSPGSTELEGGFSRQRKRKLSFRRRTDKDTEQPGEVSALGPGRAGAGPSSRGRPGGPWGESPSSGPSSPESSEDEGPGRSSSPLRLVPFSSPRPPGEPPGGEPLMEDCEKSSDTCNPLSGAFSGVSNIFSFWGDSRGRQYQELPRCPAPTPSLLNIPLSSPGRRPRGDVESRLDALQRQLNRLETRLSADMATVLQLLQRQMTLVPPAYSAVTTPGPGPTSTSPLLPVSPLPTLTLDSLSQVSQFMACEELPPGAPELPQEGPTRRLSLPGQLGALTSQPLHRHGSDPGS

In order of rising “hERG current change (%, negative = inhibition) at 10uM” value:
1. CCN(CC)CCCN(C(=O)c1cccc(C)c1)c1nc(-c2ccc(OC)cc2)cs1  -78.2%
2. O=C(NCc1ccco1)/C(=C\C=C\c1ccccc1)NC(=O)c1ccccc1Br  -70.5%
3. Cc1cc(/C=C2/C(=N)N3C(c4ccccc4)=CSC3=NC2=O)c(C)n1-c1ccccc1  -46.6%
4. CCn1cc(C(=O)NCC2CCCO2)c(=O)c2cc(S(=O)(=O)N3CCC(C)CC3)ccc21 (centres unmarked)  -28.1%
5. Oc1ccc(CCNc2ncnc3ccc(Cl)cc23)cc1  -26.4%
6. CCNC(=S)N(CCc1cccc(C)c1)Cc1cc2cc(OC)c(OC)cc2[nH]c1=O  -22.4%
7. COc1ccc(CCNC(=O)CCCOc2cccc(C)c2C)cc1OC  -16%
8. Nc1ncccc1OCc1ccc(Br)cc1  -15.9%
9. COC(=O)c1ccc(COc2ccccc2/C=C(\C#N)C(=O)NC(C)C)cc1  -11.8%
10. Cn1c(SCC(=O)Nc2ccc(F)cc2)nnc1-c1cccnc1  -11.5%
11. CC1Cc2nc(SCC(=O)Nc3ccc(F)cc3)n(C)c(=O)c2S1 (centres unmarked)  -11%
12. Cc1ccc(S(=O)(=O)N2CCN(C(=O)C3CC(=O)N(c4ccc5c(c4)OCCO5)C3)CC2)cc1 (centres unmarked)  -10.6%
13. COC/C=C/C1=CC2=CC(=O)C(C)(OC(=O)c3cnc4ccccc4n3)C(=O)C2=CN1Cc1ccccc1 (centres unmarked)  -9.89%
14. COc1ccc(CCNCc2cccn2C)cc1.Cl  -9.38%
15. O=c1c2c3c(sc2nc2n1CCCCC2)CCCC3  -9%
16. COc1ccc(S(=O)(=O)N2CCC(C(=O)N3CCN(c4ccccc4OC)CC3)CC2)cc1  -7.06%
17. Cn1cccc1/C=N/NC(=O)c1sc2ccccc2c1Cl  -6.61%
18. COCCNC(=O)c1ccccc1N(Cc1ccccc1)S(=O)(=O)c1ccc(C)cc1  -4.33%
19. O=C(Nc1ccc2c(c1)OCCO2)c1ccc(Br)o1  -1.76%
20. COc1ccc(NC(=O)c2cc(Cl)ccc2Cl)c([N+](=O)[O-])c1  -1.18%
21. CC(=O)Nc1ccc(S(=O)(=O)N(C)c2ccccc2)cc1  0.318%
22. Cn1cccc1C(=S)N1CCOCC1  0.689%
23. O=C1CCN(Cc2ccccc2)C(=O)N1c1ccccc1  1.55%
24. COc1ccc(-c2noc(-c3ccccc3C(=O)Nc3cccc(OC)c3)n2)cc1  2.25%
25. COc1ccccc1NC(=O)Cn1cncc1-c1ccc([N+](=O)[O-])cc1  2.57%
26. O=C(Nc1ccc(F)cc1)/C(Cl)=C/c1ccccc1  2.7%
27. O=C(C1CC1)N1N=C(c2ccc(Br)cc2)CC1(O)C(F)(F)F (centres unmarked)  3.54%
28. Cc1ccc(C(=O)NN2C(=O)C3C4C=CC(C5CC45)C3C2=O)cc1 (centres unmarked)  5.3%
29. COc1cccc(CN2C(=O)C3CCCN3c3ccc(S(=O)(=O)N4CCOCC4)cc32)c1 (centres unmarked)  5.87%
30. Cc1c(NC(=O)C2(C)CCCCC2)c(=O)n(-c2ccccc2)n1C  6.22%
31. O=C(Nc1ccccc1C(=O)Nc1ccncc1)c1ccccc1  8.73%
32. Cc1cccc(OCCCCc2c(C)n[nH]c2C)c1C  9.64%
33. Cc1csc(SCc2ccccc2C(=O)O)n1  9.92%
34. CCOC(=O)c1c(-c2ccccc2)csc1NC(=O)CSc1nc(N)cc(N)n1  11%
35. CC(C)[C@H](N[C@@H](C)c1ccccc1)c1c(O)ccc2ccccc12  13.4%
36. CN(CC(=O)Nc1cccc(C(F)(F)F)c1)Cc1ccccc1  14.8%
37. C/C(=N\NC(=O)c1ccc(Cl)cc1)c1ccc(N2CCOCC2)cc1  16.9%
38. CC1CC2C3CCC4=CC(=O)C=CC4(C)[C@@]3(Cl)C(O)CC2(C)C1(O)C(=O)CO (some centres unmarked)  17.1%
39. Cc1c(NC(=O)C(C)OC(=O)CCc2c[nH]c3ccccc23)c(=O)n(-c2ccccc2)n1C (centres unmarked)  17.2%
40. CN(C)CCNC(=O)c1ccc2c(c1)NC(=O)c1ccccc1S2  17.3%
41. COc1cc(C(=O)N2CCCN(C)CC2)cc(OC)c1C.Cl  17.6%
42. COc1ccc2[nH]c(-c3cccc(F)c3)cc(=O)c2c1  18.8%
43. CC(=O)C1=C(O)C(=O)N(c2ccc(F)cc2)C1c1ccc(C)cc1 (centres unmarked)  20.5%
44. COc1cccc(/C=C2/NC(=O)N(CC(=O)Nc3ccc(C)cc3)C2=O)c1OCc1cccc(C(=O)O)c1  22.7%
